Measured values from PMC9911399, “Two distinct binding modes provide the RNA-binding protein RbFox with extraordinary sequence specificity”.
Substitutions are numbered along the chain they refer to; changes in the protein carry UniProt numbers. The list shows a part of the results.

T1: RBFOX1 RRM (Homo sapiens, UniProt Q9NWB1 109-208)
T1 sequence: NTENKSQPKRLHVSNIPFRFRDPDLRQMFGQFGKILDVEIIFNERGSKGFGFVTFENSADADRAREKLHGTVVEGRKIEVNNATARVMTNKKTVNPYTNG

B1: AUGCCGA (DNA:RNA)
RNA: GGGAGACCGGAAUUCAGAUUGUCCAUGCCGAUUAAAUCCCGUCGUAGCCACCA
DNA 1: CAATCTGAATTCCGGTCTCCC
DNA 2: TGGTGGCTACGACGGGATT
B2: UGAUGCU (DNA:RNA)
RNA: GGGAGACCGGAAUUCAGAUUGUCCUGAUGCUUUAAAUCCCGUCGUAGCCACCA
DNA 1: CAATCTGAATTCCGGTCTCCC
DNA 2: TGGTGGCTACGACGGGATT
B3: GCGUCUG (DNA:RNA)
RNA: B1 RNA with A25G, U26C, C28U, G30U, A31G
DNA 1: CAATCTGAATTCCGGTCTCCC
DNA 2: TGGTGGCTACGACGGGATT
B4: ACUUUCC (DNA:RNA)
RNA: B2 RNA with U25A, G26C, A27U, G29U, U31C
DNA 1: CAATCTGAATTCCGGTCTCCC
DNA 2: TGGTGGCTACGACGGGATT
B5: AGGUGAA (DNA:RNA)
RNA: B1 RNA with U26G, C28U, C29G, G30A
DNA 1: CAATCTGAATTCCGGTCTCCC
DNA 2: TGGTGGCTACGACGGGATT
B6: ACCGUCU (DNA:RNA)
RNA: B2 RNA with U25A, G26C, A27C, U28G, G29U
DNA 1: CAATCTGAATTCCGGTCTCCC
DNA 2: TGGTGGCTACGACGGGATT
B7: GACGUGU (DNA:RNA)
RNA: B1 RNA with A25G, U26A, G27C, C28G, C29U, A31U
DNA 1: CAATCTGAATTCCGGTCTCCC
DNA 2: TGGTGGCTACGACGGGATT
B8: CUACAUA (DNA:RNA)
RNA: B1 RNA with A25C, G27A, C29A, G30U
DNA 1: CAATCTGAATTCCGGTCTCCC
DNA 2: TGGTGGCTACGACGGGATT
B9: CAGAGAA (DNA:RNA)
RNA: B1 RNA with A25C, U26A, C28A, C29G, G30A
DNA 1: CAATCTGAATTCCGGTCTCCC
DNA 2: TGGTGGCTACGACGGGATT
B10: CCGUUCG (DNA:RNA)
RNA: B2 RNA with U25C, G26C, A27G, G29U, U31G
DNA 1: CAATCTGAATTCCGGTCTCCC
DNA 2: TGGTGGCTACGACGGGATT
B11: UUAAAAG (DNA:RNA)
RNA: B2 RNA with G26U, U28A, G29A, C30A, U31G
DNA 1: CAATCTGAATTCCGGTCTCCC
DNA 2: TGGTGGCTACGACGGGATT
B12: UCUGAAA (DNA:RNA)
RNA: B1 RNA with A25U, U26C, G27U, C28G, C29A, G30A
DNA 1: CAATCTGAATTCCGGTCTCCC
DNA 2: TGGTGGCTACGACGGGATT
B13: GUAGACU (DNA:RNA)
RNA: B2 RNA with U25G, G26U, U28G, G29A
DNA 1: CAATCTGAATTCCGGTCTCCC
DNA 2: TGGTGGCTACGACGGGATT
B14: UUUACAU (DNA:RNA)
RNA: B1 RNA with A25U, G27U, C28A, G30A, A31U
DNA 1: CAATCTGAATTCCGGTCTCCC
DNA 2: TGGTGGCTACGACGGGATT
B15: AUCAACG (DNA:RNA)
RNA: B1 RNA with G27C, C28A, C29A, G30C, A31G
DNA 1: CAATCTGAATTCCGGTCTCCC
DNA 2: TGGTGGCTACGACGGGATT
B16: ACCAGGG (DNA:RNA)
RNA: B1 RNA with U26C, G27C, C28A, C29G, A31G
DNA 1: CAATCTGAATTCCGGTCTCCC
DNA 2: TGGTGGCTACGACGGGATT
B17: AGUCCGU (DNA:RNA)
RNA: B1 RNA with U26G, G27U, A31U
DNA 1: CAATCTGAATTCCGGTCTCCC
DNA 2: TGGTGGCTACGACGGGATT
B18: UCUAGCG (DNA:RNA)
RNA: B2 RNA with G26C, A27U, U28A, U31G
DNA 1: CAATCTGAATTCCGGTCTCCC
DNA 2: TGGTGGCTACGACGGGATT
B19: UGCACGA (DNA:RNA)
RNA: B1 RNA with A25U, U26G, G27C, C28A
DNA 1: CAATCTGAATTCCGGTCTCCC
DNA 2: TGGTGGCTACGACGGGATT
B20: UAUGAGA (DNA:RNA)
RNA: B1 RNA with A25U, U26A, G27U, C28G, C29A
DNA 1: CAATCTGAATTCCGGTCTCCC
DNA 2: TGGTGGCTACGACGGGATT
B21: UUACAUU (DNA:RNA)
RNA: B2 RNA with G26U, U28C, G29A, C30U
DNA 1: CAATCTGAATTCCGGTCTCCC
DNA 2: TGGTGGCTACGACGGGATT
B22: GACGCCU (DNA:RNA)
RNA: B2 RNA with U25G, G26A, A27C, U28G, G29C
DNA 1: CAATCTGAATTCCGGTCTCCC
DNA 2: TGGTGGCTACGACGGGATT
B23: UAUGAAA (DNA:RNA)
RNA: B1 RNA with A25U, U26A, G27U, C28G, C29A, G30A
DNA 1: CAATCTGAATTCCGGTCTCCC
DNA 2: TGGTGGCTACGACGGGATT
B24: GUGCGCA (DNA:RNA)
RNA: B1 RNA with A25G, C29G, G30C
DNA 1: CAATCTGAATTCCGGTCTCCC
DNA 2: TGGTGGCTACGACGGGATT
B25: UGAGAAU (DNA:RNA)
RNA: B2 RNA with U28G, G29A, C30A
DNA 1: CAATCTGAATTCCGGTCTCCC
DNA 2: TGGTGGCTACGACGGGATT
B26: AUCAAAU (DNA:RNA)
RNA: B1 RNA with G27C, C28A, C29A, G30A, A31U
DNA 1: CAATCTGAATTCCGGTCTCCC
DNA 2: TGGTGGCTACGACGGGATT
B27: ACAAUAA (DNA:RNA)
RNA: B1 RNA with U26C, G27A, C28A, C29U, G30A
DNA 1: CAATCTGAATTCCGGTCTCCC
DNA 2: TGGTGGCTACGACGGGATT
B28: GUUGCUG (DNA:RNA)
RNA: B1 RNA with A25G, G27U, C28G, G30U, A31G
DNA 1: CAATCTGAATTCCGGTCTCCC
DNA 2: TGGTGGCTACGACGGGATT
B29: UCCUAGU (DNA:RNA)
RNA: B2 RNA with G26C, A27C, G29A, C30G
DNA 1: CAATCTGAATTCCGGTCTCCC
DNA 2: TGGTGGCTACGACGGGATT

Molecular target: T1, RBFOX1 RRM
Test: EMSA; HiTS-Eq, 1 nM pool, 10 min; buffer printed only for the single-RNA assays: 10 mM Tris pH 7.5, 150 mM NaCl, 3.4 mM EDTA, 0.001% NP-40, 30 C
Conditions: tags: His6 N-terminal (pET28a); label: 5' 32P
Summary of the method: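 Relative association constants, normalised to the cognate motif, were derived by comparing read counts of each RNA species with those of the control reaction. The RNA sequenced was the free fraction, separated by 8% native PAGE after a 10 min equilibration in 50 µL of 1 nM 5′-radiolabelled RNA (7 randomized nucleotides) with increasing concentrations of purified wild-type or mutant RbFox RRM.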

For B1, which binding signal is on record?
The binding signal was 0.02 KA relative to UGCAUGU.

For B2, which binding signal is on record?
Its binding signal is 0.0276 KA relative to UGCAUGU.

How did the binding signal turn out when B3 was run?
The binding signal was 0.0191 KA relative to UGCAUGU.

With B4 as the binder, how does the binding signal read?
Its binding signal is 0.00164 KA relative to UGCAUGU.

How did the binding signal turn out when B5 was run?
Its binding signal is 0.00772 KA relative to UGCAUGU.

With B6 as the binder, how does the binding signal read?
Its binding signal is 0.00603 KA relative to UGCAUGU.

With B7 as the binder, how does the binding signal read?
Its binding signal is 0.0146 KA relative to UGCAUGU.

With B8 as the binder, how does the binding signal read?
Its binding signal is 0.000812 KA relative to UGCAUGU.

For B9, which binding signal is on record?
The binding signal was 0.00711 KA relative to UGCAUGU.

Which binding signal does the source give for B10 here?
The binding signal was 0.0126 KA relative to UGCAUGU.

B11 was tested. Which binding signal did it give?
The binding signal was 0.00649 KA relative to UGCAUGU.

Which binding signal does the source give for B12 here?
Its binding signal is 0.0135 KA relative to UGCAUGU.

B13 was tested. Which binding signal did it give?
The binding signal was 0.00669 KA relative to UGCAUGU.

With B14 as the binder, how does the binding signal read?
The binding signal was 0.00198 KA relative to UGCAUGU.

How did the binding signal turn out when B15 was run?
The binding signal was 0.00102 KA relative to UGCAUGU.

How did the binding signal turn out when B16 was run?
The binding signal was 0.00782 KA relative to UGCAUGU.

With B17 as the binder, how does the binding signal read?
The binding signal was 0.00929 KA relative to UGCAUGU.

B18 was tested. Which binding signal did it give?
The binding signal was 0.0126 KA relative to UGCAUGU.

With B19 as the binder, how does the binding signal read?
Its binding signal is 0.0767 KA relative to UGCAUGU.

With B20 as the binder, how does the binding signal read?
The binding signal was 0.0129 KA relative to UGCAUGU.

For B21, which binding signal is on record?
The binding signal was 0.00209 KA relative to UGCAUGU.

For B22, which binding signal is on record?
Its binding signal is 0.0147 KA relative to UGCAUGU.

Which binding signal does the source give for B23 here?
Its binding signal is 0.00875 KA relative to UGCAUGU.

B24 was tested. Which binding signal did it give?
Its binding signal is 0.0175 KA relative to UGCAUGU.

How did the binding signal turn out when B25 was run?
The binding signal was 0.0227 KA relative to UGCAUGU.

How did the binding signal turn out when B26 was run?
Its binding signal is 0.000176 KA relative to UGCAUGU.

B27 was tested. Which binding signal did it give?
The binding signal was 0.00274 KA relative to UGCAUGU.

B28 was tested. Which binding signal did it give?
The binding signal was 0.0225 KA relative to UGCAUGU.

For B29, which binding signal is on record?
The binding signal was 0.00548 KA relative to UGCAUGU.
